Source: the supplement of paper PMC3334620
The full ranking holds about 33,000 sequences; the median of “E-score (-0.5 to 0.5)” is about -0.01, and the highest 2% start at about 0.26. Some of the results follow.

These sequences were tested against Ste12 (UniProt P13574) (assay: PBM E-score (8-mer binding enrichment) (E-score (-0.5 to 0.5)); higher = stronger / more preferred TF binding; most listed sequences are background and not binding sites). Settings: protein concentration: 200 nM; construct: GST-DNA-binding domain.
Procedure, shortened: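 Bound GST-tagged yeast transcription factors, applied at about 100-200 nM to double-stranded universal all-10-mer Agilent arrays, were detected with fluorescent anti-GST. Scans were normalised with masliner. A modified Wilcoxon-Mann-Whitney statistic, the E-score, was assigned to each ungapped eight-base word pooled with its reverse complement by the Universal PBM Analysis Suite.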

Sequence | PBM E-score
ATAATCCC | 0.16
CAAAATCC | 0.251
ATAACCAA | 0.294
GACCTCGC | -0.086
CAGTTTAC | -0.053
AGTTTAGC | -0.00744
AATGCACG | -0.0154
CGTTTAAA | 0.111
GAAGACAC | -0.0891
CCGATGGA | -0.0721
TCTACGCA | -0.068
AGAGTCGG | 0.114
CACCAATG | 0.00052
AGAAAAGA | 0.297
GAACTCGA | -0.0129
CGAAGTTC | -0.0661
AACCCGTG | -0.315
AACTTGCC | -0.0957
CGGTCGGC | -0.14
AGAGTTAA | 0.0905
AACGAGGA | 0.0429
GAACCCGC | -0.0485
GGAATTCC | -0.0447
TCTAAGCA | 0.0247
AATAGTGG | -0.0341

Sequence | PBM E-score
AAAAATCT | 0.318
GCAACCGA | -0.185
GGATGTGA | 0.146
ATAATCTC | 0.127
TGAAGCAA | -0.0563
CCTGACTA | -0.0255
GTTTGTCA | 0.0464
ATGCCTAC | -0.19
AGAATTAG | 0.177
AACCTGCT | 0.0136
CCGCGCTC | 0.051
CATTTACG | -0.044
ATCGTTAG | 0.00868
AATCGAGA | 0.0678
ATGCGAAC | -0.0082
GGTCTTTA | 0.0687
ATGCGTTA | 0.0391
GAATCGCA | -0.0334
CGTAGCGC | -0.104
GCTTCTTA | -0.035
CGTAGTAG | -0.151
ATTTCGAG | 0.146
ATACGGAG | -0.0967
AATAGCAA | 0.00204
AGGGGCAG | -0.0336

Sequence | PBM E-score
ACAAGACA | 0.187
ACCGATAC | -0.0196
GCCGTAGA | -0.0722
GGTAAGTA | 0.02
AAAAGCAA | 0.135
ATCCCGAC | 0.119
ATTGGTAG | -0.0808
GTCAGGTA | 0.0732
ATAGAGCA | 0.0229
CGTAAACA | 0.186
GTATGTGA | 0.0194
GACGTAGC | -0.254
ACGCTACG | -0.231
CTGTCCTC | -0.215
CATATGTA | 0.0691
CTACTTCC | -0.00174
TAGTGATA | -0.126
CGAGGTAC | -0.0522
AAATGGGC | 0.0167
ATATTCTA | 0.183
AGCTGACG | -0.126
GGACCAAC | -0.203
CGACATGA | 0.0321
TAGCTTCA | -0.183
CTTCATTA | 0.136

Sequence | PBM E-score
ATTTAAGC | 0.214
CGAATCCA | 0.0639
TGTATACA | -0.112
GTGCATTA | -0.0593
GCAGCCTA | -0.177
AGAGAATA | 0.0624
AAACATTG | 0.229
AGTAATTC | 0.0643
AGTCGAGC | -0.233
CACATCGG | 0.0461
GGCACCTA | -0.0649
AGCATCTA | 0.0183
AATAAGGG | -0.0431
CTATCCAA | -0.137
AACATCGG | 0.121
TCCCTTCA | -0.0551
ACACCCAG | -0.0755
CTCAATAC | 0.184
GTTCATGA | 0.0856
AGCAGAAA | 0.15
ATGCTCAG | -0.0728
AGAGATGA | 0.0335
AGCGCATG | -0.00165
CATTAGCG | 0.0204
TAGTCCCA | -0.139

Sequence | PBM E-score
GATTCCTA | 0.019
ACTAGAAA | 0.244
AACCCAAC | 0.175
ATGAAGCA | -0.0547
ACTTTGAC | -0.101
CAACACCA | -0.167
GGTGATGA | 0.0671
TACGAGCA | -0.108
GGAGATGA | -0.0923
AAACGAAC | 0.103
CGCTACCA | -0.0682
ACAAACAC | 0.266
GTTGCTGA | -0.0566
CCTTTTCC | 0.0263
AACCAGCG | -0.0325
AGGGATAC | -0.227
GGTCAACA | 0.0377
CATTTTGC | 0.178
CATCAACC | 0.0722
GCTGGTAA | -0.0346
CGGCATCA | 0.0216
AGTCGGAT | 0.05
CGCTATGA | -0.0983
ATGCTAGG | -0.152
CTCGAGAA | -0.00898

Sequence | PBM E-score
AGTAGTTA | -0.12
GTAAAACA | 0.323
CGGCGTCC | -0.0783
CGAGCCCA | -0.159
AGTCGCCC | -0.197
ACCGCTAC | 0.0074
TATAAAAA | 0.27
AGAGGTAG | -0.117
AAGTCATT | -0.135
CAATGAGC | -0.115
AAGTACTA | 0.0588
AATGACGT | -0.0516
ATAGCTAT | -0.174
CATCCGCG | 0.0961
ATTGCGTA | -0.00669
AAGTGGCC | -0.136
TGATCCAA | 0.102
CGAGGGTA | -0.0222
TAATATGA | 0.226
ACTATACA | -0.0333
ACAGCTTA | 0.0118
CTTGAAGA | -0.0011
CGTAATGA | 0.0351
ATAAGGAT | 0.234
GCCTACAC | -0.00985

Sequence | PBM E-score
CTGCGGGA | -0.13
ATTCGTGG | 0.0399
AGCTCGCC | -0.0858
GCATCACA | -0.0108
GTCTTGCA | 0.0305
AATCTACT | 0.2
GCATCGAA | -0.114
ACGTGAGC | -0.148
AGACCGTG | -0.121
TAGGACGA | -0.101
CCGACCGC | -0.169
TAACATCA | 0.126
ACCCAGGG | -0.161
GAATCCGC | -0.157
ACGCGTCA | 0.0117
GTCTGACA | -0.056
ATACCGTC | 0.0412
AAGTCTCC | -0.213
CATGAGCA | -0.145
CAATTGTG | 0.0226
ATGCATGA | -0.00341
CTAGACTC | -0.303
AAGCCTAA | 0.067
CGGCGCCG | 0.0421
TAAACTCA | 0.113

Sequence | PBM E-score
CGAGTCAA | -0.155
CGCAGATC | -0.142
CGACTACG | -0.159
CTGATACA | 0.28
AGCCACAC | 0.0621
AAACTCAT | 0.261
AACTCTCC | -0.129
AGACATGC | -0.103
AGGTGCAT | -0.0738
CAGCTGTC | -0.0754
GCTACCAC | -0.152
AACACCGA | -0.0548
AAGGGGTA | 0.0162
TGCGTGAA | 0.0739
CGAAACAG | 0.244
ATGAAGGA | 0.0677
ACCTCGCG | -0.259
CTCTTTGA | -0.037
GCCACCCA | -0.106
ATCAATTG | 0.154
CTGGATGC | -0.106
AACTCCTT | -0.00898
GAGTCATC | -0.0404
ACCTACCG | -0.137
CGCTGAAG | -0.0522

Sequence | PBM E-score
CCGTTGCA | 0.0898
ACGTGCAG | 0.103
GTTATGAA | 0.221
CAATTGAA | 0.187
ACTACCTC | -0.0451
GTAAGCTA | -0.12
CAAACAAC | 0.223
ATAAACCC | 0.211
ACTTCTGA | 0.184
GGGGATGA | 0.0572
CCCACACA | 0.126
ACGACCTG | -0.165
TAAGCCGA | 0.106
AAGTGAGC | -0.175
ACTTACCC | 0.129
ACTTCGTA | -0.0272
AGCGTCAG | -0.255
CCTGATGA | 0.0374
AAGAATCG | 0.0677
